Source: PubChem BioAssay AID1671193 (National Center for Advancing Translational Sciences (NCATS), 2021)
In all, about 150,000 compounds went through this assay and about 180 (0.12%) were called active. The inconclusive results got no clear call from the source; some entries with a clear call stand among them for comparison. Calls follow the shape of the dose curve; as a rule, active = well fitted cell-killing curve with a large enough effect; inconclusive = small, poorly fitted or top-dose-only effect, or effect the other way; inactive = flat fitted curve, though single readings scatter. Potencies beside an inconclusive call are fits to weak or partial responses and may not hold up.
Potency is read from the fitted curve at half-maximal effect; tags tell the direction and shape of the fitted curve.

Experiment: GF-AFC viability counterscreen for inhibitors of alpha-synuclein gene (SNCA) expression; also: nearly all actives have a fitted effect of over 30% in size;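 as to activity change, negative = cytotoxicity: 0% = DMSO-treated cells and -100% = medium-only wells without cells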
Conditions: HEK-293-SNCA-luc viability, GF-AFC fluorescence, 24 h; activity change, negative = cytotoxicity: at 57.1 µM (top of the series) unless noted
In short: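 Cytotoxicity counterscreen: after 24 h compound treatment of genome-edited SNCA-luciferase HEK-293 cells, live-cell protease substrate GF-AFC read by fluorescence after 30 min; activity scaled between DMSO (0%) and medium-only (-100%), curves Hill-fitted.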
In the case of `CCC(C)NC(=O)Cn1c(=O)n(Cc2ccc(C(=O)NCc3ccccc3OC)cc2)c(=O)c2ccccc21` (configuration not stated), the Potency is reported as inconclusive: 3.16 µM [cytotoxic, partial curve, poor fit].
With `Cc1cc2nc3n(c(=O)c2n1CC(=O)N1CCCc2ccccc21)CCCC3` the Potency was inconclusive: 3.16 µM [cytotoxic, partial curve, poor fit].
For `O=C1NC(=NC2CCCCC2)C2(CCCN([S+](=O)([O-])c3cccc(C(F)(F)F)c3)C2)N1c1cccnc1` (configuration not stated), the Potency was inconclusive: 39.8 µM [cytotoxic, single point].
In the case of `Cc1cc(C)cc(-n2c(SCC(N)=O)nc3c(oc4ccccc43)c2=O)c1`, the Potency is reported as inconclusive: 3.55 µM [cytotoxic, full curve].
In the case of `C=C[C@H]1[C@H](O[C@@H]2O[C@H](CO)[C@@H](O)[C@H](O)[C@H]2O)OC=C(C(=O)OC)[C@H]1C[C@@H]1c2cc(O)c(O)cc2CCN1C(C)=O`, the “activity change, negative = cytotoxicity” value is reported as inactive: 17.8% [at 23.9 µM].
For `Cc1ccc(Nc2ccnc(N3CCCC(C(=O)NCCc4ccc(F)cc4)C3)n2)cc1` (configuration not stated), the activity change, negative = cytotoxicity was inactive: 1.92% [at 12.5 µM].
With `O=C(CSc1nc2ccccc2nc1Cc1ccccc1)N1CCCCC1` the Potency was inconclusive: 31.6 µM [cytotoxic, single point].
For `CCOc1ccc(NCc2cccn2-c2nnc(N3CCC(C(=O)NCCc4ccc(OC)c(OC)c4)CC3)s2)cc1`, the Potency was inconclusive: 39.8 µM [cytotoxic, single point].
With `S=C(Nc1cccc2ccccc12)N[C@H]1CO[C@H]2[C@@H]1OC[C@H]2OCc1ccccc1` the “activity change, negative = cytotoxicity” value was inactive: -26.5% [at 87.6 µM].
In the case of `COCCN1Cc2ccc(NCc3ccccc3)nc2C(C)(C(=O)NCc2ccccc2)C1` (configuration not stated), the “activity change, negative = cytotoxicity” value is reported as inactive: 7.58%.
For `COc1ccccc1CN[C@H]1CCCN[C@H]1c1ccccc1`, the Potency was inconclusive: 1.34 µM [cytotoxic, full curve, poor fit].
With `COc1cccc(NC(=O)CCc2c(C)nc3c4cccnc4nn3c2C)c1` the Potency was inconclusive: 1.78 µM [cytotoxic, full curve].
For `CCOC(=O)c1ccc(NC(=O)N2Cc3[nH]cnc3C[C@H]2c2nc(-c3cccc(C)c3)no2)cc1`, the Potency was inconclusive: 31.6 µM [cytotoxic, single point].
For `CNC(=O)c1cc2cc(-c3c(C)noc3C)nc(-c3cccnc3)c2o1`, the “activity change, negative = cytotoxicity” value was inactive: 9.86% [at 87.6 µM].
With `O=C(c1cccnc1)N1CC(Oc2ccc(-c3noc(-c4ccccc4)n3)cc2)C1` the Potency was inconclusive: 17.8 µM [cytotoxic, partial curve, poor fit].
For `CSCC[C@H](N)C(=O)N1CCC2(CCC(=O)N(Cc3ccccc3)C2)CC1`, the Potency was inconclusive: 28.2 µM [cytotoxic, partial curve, poor fit].
With `Cc1cccn2c(=O)c3cc(C#N)c(=O)n(-c4nnc(SCc5ccccc5F)s4)c3nc12` the Potency was inconclusive: 6.31 µM [rising, partial curve, poor fit].
For `COc1ccc2cc(-c3nc4ccc(C(=O)O)cc4[nH]3)c(=O)oc2c1`, the Potency was inconclusive: 28.2 µM [rising, partial curve, poor fit].
For `O=C(c1ccc(-c2ncc3cnc(-c4ccccc4)cn23)cc1)N1CCc2cccnc21`, the Potency was inconclusive: 35.5 µM [cytotoxic, partial curve].
For `O=C(CNC(=O)c1ccc(-c2cccc(C(F)(F)F)c2)cc1)NCc1ccccc1`, the activity change, negative = cytotoxicity was inactive: -6.48% [at 12.5 µM].
In the case of `COCCN(Cc1nccs1)C(=O)c1cnc(-c2ccccn2)[nH]c1=O`, the “activity change, negative = cytotoxicity” value is reported as inactive: -15.8%.
With `CCOc1ccc(CC(=O)N2CCC(Cc3nc(-c4ccc(OC)cc4)no3)CC2)cc1OCC` the Potency was inconclusive: 39.8 µM [cytotoxic, single point].
In the case of `CCOC(=O)c1[nH]c(C)c(CCC(=O)NCc2ccc(OCC)cc2)c1C`, the Potency is reported as inconclusive: 39.8 µM [rising, partial curve, poor fit].
With `COc1cccc(-c2ccc3c(N)c(C(=O)c4ccc(Cl)cc4)sc3n2)c1` the Potency was inconclusive: 22.4 µM [rising, partial curve, poor fit].
In the case of `CC(=O)Nc1ccc(S(=O)(=O)N[C@H]2CO[C@H]3[C@@H]2OC[C@H]3OC(=O)Nc2ccc(C(C)=O)cc2)cc1`, the “activity change, negative = cytotoxicity” value is reported as inactive: 0.661%.
For `O=C(CN1C(=O)COc2ccc(S(=O)(=O)N3CCCCCC3)cc21)NCc1ccc(F)cc1`, the Potency was inconclusive: 12.6 µM [cytotoxic, partial curve].
With `COC(=O)CNC(=O)c1nc(-c2ccc(Cl)nc2)c2ccccn12` the “activity change, negative = cytotoxicity” value was inactive: -5.04%.
In the case of `Cc1cc(Nc2cccc(Cl)c2)nc2ccc(NC(=O)c3cccnc3)cc12`, the Potency is reported as inconclusive: 12.6 µM [cytotoxic, partial curve, poor fit].
With `COc1ccc(F)cc1S(=O)(=O)NCCc1sc2nc(-c3ccc(F)cc3)nn2c1C` the Potency was inconclusive: 2 µM [cytotoxic, full curve].
For `COc1cc(C(=O)Nc2ccc3oc(-c4ccc(C)c(Br)c4)nc3c2)cc(OC)c1OC`, the Potency was inconclusive: 39.8 µM [cytotoxic, single point].
In the case of `CCN1c2cc(C(=O)Nc3ccc(C(F)(F)F)cc3)ccc2C(=O)N2CCCCC21` (configuration not stated), the Potency is reported as inconclusive: 3.16 µM [rising, single point].
In the case of `CCCOc1ccc(-c2nn(-c3ccccc3)cc2C2NC(=O)NC(C)=C2C(=O)OC(C)C)cc1` (configuration not stated), the Potency is reported as inconclusive: 22.4 µM [cytotoxic, single point].
For `CC[C@H]1CN(S(=O)(=O)c2ccc(OC)cc2)CC[C@H]1CC(=O)O`, the Potency was inconclusive: 4.47 µM [cytotoxic, full curve, poor fit].
In the case of `CN(C)CC(=O)N1CCC2(C1)CN(C)c1ccc(C(=O)NCc3cccs3)cc12` (configuration not stated), the “activity change, negative = cytotoxicity” value is reported as inactive: -0.844% [at 87.6 µM].
With `COc1cc(OC)c(Nc2cc(C)nc3ncnn23)cc1Cl` the activity change, negative = cytotoxicity was inconclusive: 43.4%.
In the case of `O=C(NCCc1ccccc1)N1CCC(c2noc(COc3ccc(F)cc3)n2)C1` (configuration not stated), the “activity change, negative = cytotoxicity” value is reported as inactive: 2.75%.
In the case of `Cc1ccc(C)c(C(=O)N2CCC3(CC2)N=C(c2ccccc2)NO3)c1`, the Potency is reported as inconclusive: 10 µM [rising, partial curve, poor fit].
In the case of `CC(=O)N1CCn2ncc(C(=O)Nc3ccc(Cl)cc3Cl)c2C1`, the Potency is reported as inconclusive: 4.47 µM [cytotoxic, partial curve, poor fit].
In the case of `O=C(NCCN1CCOCC1)c1noc(-c2ccccc2F)n1`, the “activity change, negative = cytotoxicity” value is reported as inactive: 9.96%.
For `Cn1cc(Nc2ccc(Cl)cc2)c2nc(CN3CC[S+](=O)([O-])CC3)cn2c1=O`, the “activity change, negative = cytotoxicity” value was inactive: -2.4% [at 87.6 µM].
In the case of `COCc1ccc(C(=O)N[C@@H]2COCC[C@@H]2OCc2c(C)noc2C)o1`, the “activity change, negative = cytotoxicity” value is reported as inactive: -2.26%.
For `COc1cccc(C2=CC(c3ccc(OC)c(OC)c3OC)n3ncnc3N2)c1` (configuration not stated), the Potency was inconclusive: 31.6 µM [rising, partial curve, poor fit].
With `CC(C)NC(=O)N1CNC(=O)C12CCN(C(=O)[C@@H](N)c1ccccc1)CC2` the “activity change, negative = cytotoxicity” value was inactive: -8.26%.
With `Cc1cccc(-c2noc(CCC(=O)N3CCC(C)(c4noc(C5CC5)n4)CC3)n2)c1` the “activity change, negative = cytotoxicity” value was inactive: -6.14%.
With `Cc1ccccc1-c1cc(C(=O)NCc2cccnc2)c2c(c1)N(C)CCO2` the “activity change, negative = cytotoxicity” value was inactive: -17.5% [at 87.6 µM].
With `CCC(=O)N1CCN(c2nc3c(s2)CC(C(=O)NCC(C)C)CC3)CC1` (configuration not stated) the “activity change, negative = cytotoxicity” value was inactive: 3.16%.
With `Cn1nccc1-c1cn(C)c(=O)n2cc(COc3ccc(Cl)cc3)nc12` the Potency was inconclusive: 7.08 µM [cytotoxic, single point].
In the case of `O=C(N[C@H]1CO[C@H]2[C@@H]1OC[C@@H]2Nc1nccc(-c2cccs2)n1)c1ccccc1`, the Potency is reported as inconclusive: 31.6 µM [cytotoxic, single point].
For `CCCC1c2nccn2CCCN1C(=O)c1cnco1` (configuration not stated), the Potency was inconclusive: 39.8 µM [cytotoxic, single point].
With `CCCNC(=O)c1ccc2c(c1)ncn2-c1ccc(C)cc1C` the Potency was inconclusive: 7.08 µM [cytotoxic, partial curve, poor fit].
In the case of `COc1ccc(-c2nc3cnccn3c2NCCC(=O)N2CCCCCC2)cc1`, the Potency is reported as inconclusive: 22.4 µM [rising, single point].
For `Cc1ccc(S(=O)(=O)N2CCCc3cc(NS(=O)(=O)c4ccc(F)c(C)c4)ccc32)cc1`, the Potency was inconclusive: 39.8 µM [cytotoxic, single point].
With `O=C(NCC1CCCN(Cc2cccc(-c3ccco3)c2)C1)c1cccs1` (configuration not stated) the Potency was inconclusive: 3.16 µM [cytotoxic, single point].
For `COCC(=O)NC[C@@H]1C=C(C)[C@H](Cc2nc3ccccc3n2C)C[C@H]1C(C)C`, the Potency was inconclusive: 17.8 µM [cytotoxic, partial curve, poor fit].
In the case of `COc1cccc(C(=O)NCCSc2c(-c3ccc(F)cc3)[nH]c3ccccc23)c1OC`, the Potency is reported as inconclusive: 39.8 µM [cytotoxic, single point].
In the case of `O=C(c1ccccc1)c1ccc2nc(NC(=O)c3csc(C4CCN(c5ncnc6ccsc56)CC4)n3)[nH]c2c1`, the Potency is reported as inconclusive: 0.168 µM [cytotoxic, full curve, poor fit].
For `O=C(Nc1ncc(SCCN2CCCC2)s1)C1(c2ccc(S(=O)(=O)C3CC3)cc2)CC1C1CCCCC1` (configuration not stated), the Potency was inconclusive: 5.97 µM [cytotoxic, partial curve, poor fit].
With `COCC(=O)Nc1c(C(=O)OC)n(CCCc2ccccc2)c2ncc(NC(C)CCO)cc12` (configuration not stated) the Potency was inconclusive: 14.1 µM [rising, single point].
With `COc1ccccc1CNc1nc(-c2ccc(N(C)C)cc2)nc2ccccc12` the Potency was inconclusive: 28.2 µM [cytotoxic, single point].
With `COc1ccc(S(=O)(=O)NCC(c2ccco2)N2CCOCC2)cc1` (configuration not stated) the Potency was inconclusive: 5.62 µM [cytotoxic, partial curve, poor fit].
With `Cc1cccc(NC(=O)Cn2ccn3nc4c(c3c2=O)CCCC4)c1C` the “activity change, negative = cytotoxicity” value was inactive: 0.57%.
With `Cc1cccc(C)c1N1CC(c2nc3ccccc3n2CC(=O)OC(C)C)CC1=O` (configuration not stated) the Potency was inconclusive: 14.1 µM [cytotoxic, partial curve, poor fit].
